Results as given in the supplement of paper PMC4466236.
Whole data set: some 33,000 sequences, median “E-score (dimensionless, -0.5 to 0.5)” near -0.058, cut for the highest 2% near 0.35. The list shows a part of the results.

Tested on: MvaT
Experiment: PBM 8-mer E-score (mean of HK and ME arrays) (E-score (dimensionless, -0.5 to 0.5)); higher = stronger relative binding preference; most listed sequences are background and not binding sites
In short: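 Reported values are rank-based E-scores, taken as the mean of two universal arrays and parsed with a custom script. Each 8-mer score falls between -0.5 and 0.5. The arrays, ME and HK, were double-stranded 60-mers with a constant 25-mer primer region and a variable 35-mer region covering all 8-mers. They were probed, by an earlier protocol, with full-length P. aeruginosa MvaT carrying an N-terminal glutathione S-transferase fusion.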

Sequence	PBM 8-mer E-score
GGGTCGCA	-0.14
ATCGCCAA	-0.0435
GCTCTTGA	-0.154
CGCCTATC	-0.126
CATTGGTA	-0.109
ATGTCCTC	-0.129
CTCACACC	-0.0325
AGTCATGG	-0.0721
ACTACCAG	-0.12
CGTGTGGC	-0.0386
TCTATCAA	0.0716
GCTATGCC	-0.26
CCCTGCTA	-0.287
AGAGAATG	-0.0193
AATAAAGT	0.372
ACTCCTCA	-0.205
AGGTCGTA	-0.122
AGTACAGC	-0.0804
AAAACCGC	0.058
AGTGCAGA	0.0261
AACAAGTT	0.251
AAACTCCA	-0.011
ATACAATC	0.18
ACGGGGCG	-0.229
CATGGCGC	-0.263

Sequence	PBM 8-mer E-score
CACGACGC	-0.183
CGCCCGCC	-0.17
ACGACTAG	-0.185
AACGCATG	-0.0851
ATACATCG	0.0832
AGATTTGC	-0.0458
ATCCATTA	0.233
CGCATCCG	-0.222
GTGCGTTA	0.133
TGATACAA	0.145
GATGGCCA	-0.128
ACTCCCAC	-0.103
CACCCTGA	-0.109
GACAGGAA	-0.051
ACCATTCT	0.00713
CTGTATGA	-0.0996
ACGTAGAG	-0.167
TAACTACA	0.249
CAAAACAC	0.0954
CACCCTCC	-0.163
CGATCCGA	-0.123
CTGCGCAA	-0.0818
AGTGGAAG	0.0157
ATGAACTG	0.013
CCCGACTC	-0.0416

Sequence	PBM 8-mer E-score
GATTGTTA	0.204
CCAGTAGC	-0.0641
CCTCAGCG	-0.282
AACGAGCT	-0.173
AAACCTTC	-0.076
TAACGCCA	-0.0994
TGATTACA	0.175
AGCTACTG	-0.0992
CAACCTCC	-0.237
ATGCCTAG	-0.0922
AAGATGAA	0.0102
ACCCCTAT	0.0101
AGTATCCA	0.00667
ATCAAGAA	0.117
CAGTGTGA	0.0669
CGATGTGC	-0.0977
GTCAACGA	-0.153
CGACCTGC	-0.202
AGCTGTCC	-0.182
TACGAAAA	0.228
ACTAAAAC	0.289
CCCCGACC	-0.336
CGGCAACA	-0.0512
AATAATGC	0.384
CGTCACCA	-0.18

Sequence	PBM 8-mer E-score
AAACCTGC	-0.0401
TACGCCTA	-0.261
AGAGTTTG	0.178
GGGTGTCA	-0.0502
TAGAGCGA	-0.181
CGGATCTA	-0.228
CTCTTACA	0.0256
CGGAGCAA	-0.137
ACACGCCA	-0.165
ACTCCCGC	-0.2
ATGTAAAC	0.123
GCCCGCAA	-0.0618
AAAGGACT	0.00635
GTTCGCCA	-0.143
GAATAGGA	-0.0282
ATCATCAT	0.0279
ACAGATAT	0.167
AAACTAAG	0.304
ACGTTTCG	-0.178
CATCAAAA	0.0407
ATGCACCC	-0.0724
AGCCCACA	-0.0622
ACATGGAC	-0.0248
GGGGTATA	-0.000143
CGGCATTC	-0.142

Sequence	PBM 8-mer E-score
GGACAAAA	0.124
CACTCGAC	-0.125
CTGGGAAG	-0.116
AAAGGGCC	-0.251
CTGAGAAC	-0.0775
TCATTTCA	0.0512
CAAATGTC	0.00575
ATTGGCGC	-0.0226
CCAGGGCC	-0.325
GGAATGGA	-0.112
AGACCGAG	-0.182
GCGAATAA	0.291
AAGTCCAG	-0.0458
AAAAAGAG	0.0446
CGGGACGA	-0.147
ACTTAAGC	0.116
AATTCTAC	0.188
ACGATAAG	0.0654
ACGGGCTA	0.0215
GCTTGCAA	-0.094
TAATCTCA	0.212
ACATGGCG	-0.0804
ATAGGTAG	0.0553
AAGTTAAA	0.411
CCGCGACG	-0.107

Sequence	PBM 8-mer E-score
CTTCTGAA	0.0127
CCCGAAAA	-0.061
AGTGTGCC	-0.124
CGGGGGTA	-0.267
CATGTACC	0.169
GCCTGCCA	-0.193
AATGCTGT	0.153
AGGCTAAT	0.0247
CACGCTTA	-0.0488
CATAAGAC	0.088
ATGGGTAG	-0.0164
TGACCGAA	-0.12
ACTGTAAA	0.266
AAACCAAA	0.254
GCAGCACA	-0.163
GGCAGTAA	0.156
GCCGACAC	-0.139
GAGGATTA	-0.0188
GAACTTGC	0.23
CTTCGATA	0.0794
ACCCGGAG	-0.231
CGTGGGGC	-0.227
AAGCTAAT	0.0881
AGTTATCG	0.116
CTGTGTAC	0.0205

Sequence	PBM 8-mer E-score
ACCAACAT	0.237
GCCGCCTA	-0.281
CCGTACTC	-0.184
GGTCACCA	-0.23
CTATCGAG	-0.0888
CAGATCCA	-0.0509
CAGGTGAA	0.0422
CCAGCGAA	-0.048
CCAAAACC	-0.0346
ACTGTCTG	-0.0221
AAATAGTA	0.288
GTCAACAA	0.0471
AGCCAGCC	-0.299
CCCCTCCC	-0.431
ATGGCCCA	0.00636
TAAAAGTA	0.262
AATCAAGA	0.0771
ATAGGACG	0.0145
AGCCACCT	-0.136
GGCTACCA	-0.214
ATGATTAG	0.157
TGATAAAA	0.258
